# In the supplement of paper PMC8291772:
# ± gives the standard error. The list shows a part of the results.
# Target: terminal deoxynucleotidyl transferase (calf thymus) (UniProt P06526)
# Assay: TdT poly-dT extension signal (Cy3 hybridisation fluorescence, uncapped minus capped) (fluorescence a.u.); higher = more efficient initiation of TdT extension
# Details: initiator chemistry: L-DNA (mirror-image), free 5'-OH (3'-tethered via HEG linker)
# Experimental: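 All mono- to pentamer D-DNA or L-DNA initiators were made by forward (3'->5') photolithographic in situ synthesis on glass on a hexaethylene glycol linker, leaving a free 5'-OH. Each was made in uncapped and DMTr-dT-capped versions, about 11 replicates each. Arrays were extended with calf thymus TdT (0.2 U/uL), 100 uM dTTP and 0.25 mM CoCl2 for 120 min at 37 C, hybridised with an rA18-Cy3 probe and scanned at 532 nm. The value is the mean uncapped minus the mean capped signal. IDs read 5'->3'. L-DNA is mirror-image; D-DNA 5'-OH initiators were below LOD (no extension).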
# UniProt P06526, sequence (P06526 whole entry): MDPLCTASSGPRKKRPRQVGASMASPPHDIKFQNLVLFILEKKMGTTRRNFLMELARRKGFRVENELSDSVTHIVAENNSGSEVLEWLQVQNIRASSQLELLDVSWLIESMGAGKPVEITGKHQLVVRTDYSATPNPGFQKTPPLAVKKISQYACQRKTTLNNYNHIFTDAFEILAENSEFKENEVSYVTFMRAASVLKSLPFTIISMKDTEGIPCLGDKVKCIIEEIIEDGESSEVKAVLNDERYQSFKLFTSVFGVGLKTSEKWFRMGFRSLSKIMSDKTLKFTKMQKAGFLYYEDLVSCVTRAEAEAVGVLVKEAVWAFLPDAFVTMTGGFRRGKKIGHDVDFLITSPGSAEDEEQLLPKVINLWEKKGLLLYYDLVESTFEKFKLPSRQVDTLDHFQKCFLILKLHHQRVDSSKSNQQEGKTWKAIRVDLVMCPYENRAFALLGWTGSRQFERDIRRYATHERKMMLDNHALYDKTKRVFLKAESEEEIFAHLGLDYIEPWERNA
row,Sequence,TdT poly-dT extension signal
1,ATGGC,127 ± 8.4
2,AAAAT,116 ± 8.5
3,TCTTA,185 ± 18
4,GGGGG,140 ± 22
5,GCCAC,117 ± 11
6,AAAC,95.6 ± 6.7
7,TTACC,393 ± 30
8,CAAGG,68.1 ± 7.1
9,TTTTG,293 ± 38
10,AACA,77.7 ± 7.8
11,GTATA,166 ± 9.6
12,TCCGA,232 ± 16
13,CGTGC,56.1 ± 9.6
14,ATCCC,147 ± 16
15,TTCGC,323 ± 18
16,CGCAG,68.2 ± 4.8
17,GACTA,90.7 ± 8
18,ACTAT,78.1 ± 8.2
19,GAAGT,63.4 ± 5.8
20,AGGT,48.1 ± 6.9
21,CCGGC,73.4 ± 5.9
22,TGGG,117 ± 12
23,GGCCG,76.6 ± 5.5
24,CGGCA,46.5 ± 5.4

row,Sequence,TdT poly-dT extension signal
1,TGAA,191 ± 8.7
2,TTTGA,320 ± 26
3,TCGGC,137 ± 6.5
4,AACCT,68.9 ± 7.2
5,ACTA,84.4 ± 5.3
6,TTCC,293 ± 17
7,AGTGT,44.6 ± 5.9
8,CGGG,67.9 ± 5.8
9,GCGAT,76.8 ± 5.8
10,CGGCG,62.5 ± 5.1
11,AACCA,76.7 ± 5.9
12,TCACT,166 ± 13
13,AGGA,41 ± 5.6
14,CATCA,74 ± 8.4
15,GGATG,79.8 ± 6.8
16,TAAGT,139 ± 7.2
17,TTATG,340 ± 26
18,TCGA,164 ± 8.8
19,GATAC,80.4 ± 7.8
20,TGCCT,141 ± 10
21,TGAAT,218 ± 9.9
22,ATTTA,158 ± 8.6
23,AGCTC,43.9 ± 5.9
24,ACATA,94.3 ± 6.5

row,Sequence,TdT poly-dT extension signal
1,GCATG,68.4 ± 6.1
2,GATGT,73.7 ± 5.3
3,GATT,74.5 ± 8.8
4,CAAC,86.1 ± 7.5
5,TTACG,380 ± 28
6,GTTGG,144 ± 11
7,CAATG,82.3 ± 7.5
8,ACGGT,45.2 ± 3.5
9,CACCA,78.3 ± 7.2
10,ACGTG,55.7 ± 6
11,CCATT,86.9 ± 6.7
12,CTTT,127 ± 17
13,AATT,65.9 ± 7.1
14,GTCTC,134 ± 13
15,TACT,156 ± 14
16,GAGCT,48.4 ± 4.7
17,CCTGG,79.5 ± 7.8
18,GCACC,62.7 ± 5.7
19,GCCTT,65.7 ± 7
20,AACTT,58.3 ± 8.9
21,AGCGT,60.8 ± 7
22,GGGAA,86.2 ± 9.3
23,ACTCC,51.6 ± 7
24,CGGCT,41.9 ± 5

row,Sequence,TdT poly-dT extension signal
1,CGTGA,62 ± 7.9
2,ATAC,145 ± 13
3,TTAGA,396 ± 35
4,GACG,90.2 ± 7.1
5,ACGA,68.3 ± 10
6,GACC,79.2 ± 7.3
7,CGAAT,80.7 ± 9.7
8,GGAAG,82.2 ± 8.3
9,CTTAA,181 ± 12
10,TTTAT,331 ± 24
11,TGGAA,157 ± 20
12,AGCCG,52.1 ± 6.1
13,ACTGG,71.1 ± 8.8
14,GCGCA,60.6 ± 4.9
15,CGAT,58.9 ± 7.2
16,TGTAG,151 ± 11
17,TAATT,187 ± 11
18,CAGA,62.8 ± 6.1
19,GCCAG,113 ± 9.8
20,GGTAT,57.1 ± 6.5
21,TACCA,154 ± 18
22,TGCC,126 ± 14
23,TCTT,131 ± 13
24,CCCGA,104 ± 13

row,Sequence,TdT poly-dT extension signal
1,CCCCG,119 ± 4.4
2,TGCTC,133 ± 7.3
3,GGTAG,73.1 ± 12
4,GGGAT,68.8 ± 6.8
5,CAGCC,42.2 ± 5.7
6,GGCAC,66.6 ± 6.4
7,GTCTG,128 ± 7.3
8,TGTC,117 ± 8.9
9,TTTA,271 ± 29
10,GTAAC,191 ± 15
11,CGAA,85.8 ± 8.1
12,AGTCT,45.6 ± 5.8
13,TTCTT,311 ± 24
14,GTCTA,137 ± 11
15,AACTA,80.8 ± 8.7
16,CCGA,85.8 ± 6.3
17,TTCT,243 ± 31
18,GCCGG,119 ± 8.8
19,GATG,77.6 ± 6.8
20,TACAA,219 ± 20
21,TGCA,144 ± 9.7
22,GTCG,120 ± 15
23,TAAA,211 ± 14
24,TTGC,186 ± 16

row,Sequence,TdT poly-dT extension signal
1,GCTC,71.8 ± 6.1
2,GCATT,82.9 ± 6.6
3,ACAAA,107 ± 9.3
4,TGGAC,142 ± 8
5,CTAT,161 ± 15
6,AAAGA,99.1 ± 14
7,CCGGA,78.7 ± 10
8,CTCCT,111 ± 9.1
9,CCCA,85.9 ± 8.4
10,GCAAC,79.9 ± 7.4
11,TCTC,128 ± 17
12,CAATC,72.9 ± 9.3
13,TGTA,126 ± 10
14,TCGT,107 ± 8
15,ACGCT,53.3 ± 8.2
16,TTTGC,271 ± 19
17,GGGG,92.1 ± 12
18,CAGTC,40.9 ± 6.1
19,ATCAG,196 ± 13
20,TAAAT,192 ± 18
21,CAGTG,49.3 ± 7.1
22,TCGCC,117 ± 8.6
23,TGCAT,139 ± 8.2
24,AGACC,65.8 ± 5.9

row,Sequence,TdT poly-dT extension signal
1,TCATC,161 ± 13
2,CTCAG,173 ± 11
3,GCGCG,71.1 ± 5.7
4,TCGCT,116 ± 9.8
5,GCGC,65.6 ± 5.8
6,ATTCC,116 ± 8.7
7,AATGT,65 ± 6.7
8,ATGCG,139 ± 13
9,TTAAG,495 ± 38
10,AACAG,86.5 ± 6.9
11,CGTGT,64 ± 6.9
12,AACC,85.8 ± 9.4
13,TGTTA,105 ± 9.5
14,GTCCA,122 ± 10
15,CCAA,122 ± 5.5
16,AGGCC,44.8 ± 6.1
17,TCCAT,191 ± 21
18,GCAGA,85.2 ± 7.5
19,ATGTG,137 ± 8.2
20,CTAC,128 ± 9.8
21,TGCAG,159 ± 10
22,TTCGT,330 ± 27
23,TGCTA,130 ± 14
24,TATT,147 ± 17

row,Sequence,TdT poly-dT extension signal
1,GTCAC,153 ± 10
2,AGCTT,39.7 ± 5.4
3,GGGGT,93.9 ± 12
4,GGCCT,81.3 ± 4.8
5,ATGGG,140 ± 11
6,AGAA,72.3 ± 4.3
7,ATCTC,134 ± 18
8,TGAGA,183 ± 12
9,TAGGC,112 ± 10
10,ATAAC,255 ± 20
11,GTACG,158 ± 12
12,GGCT,43.5 ± 5.9
13,GTCGG,178 ± 14
14,CATTG,68.2 ± 6.9
15,ATCG,160 ± 15
16,GCAC,60 ± 6.6
17,GCAGC,65.5 ± 4.7
18,CGGTT,44.1 ± 6.8
19,AGTTG,42.4 ± 5.7
20,ACATC,67.4 ± 8.2
21,ATCCG,155 ± 16
22,CCGGG,82.9 ± 7.7
23,CGGGT,53.6 ± 6.7
24,CGTAT,63.7 ± 4.6

row,Sequence,TdT poly-dT extension signal
1,TCTAG,191 ± 9.2
2,TTAG,308 ± 27
3,CCGAC,92.4 ± 7.3
4,CCACC,83.4 ± 6.5
5,CGCGC,77.5 ± 7.8
6,CCCAG,107 ± 6.9
7,TTCTC,274 ± 20
8,TTTGT,311 ± 21
9,AGACT,58.5 ± 4.5
10,TCAT,147 ± 9.1
11,AATAT,107 ± 12
12,ACCAG,102 ± 4.9
13,TAGTG,104 ± 8.4
14,AATGG,73.7 ± 4.7
15,CCGAT,71.6 ± 5.6
16,AATGA,87 ± 9.6
17,TTCTG,320 ± 24
18,CGAAC,81.2 ± 6.3
19,ACAAC,92.6 ± 6.6
